In paper PMC4336329 (PLoS ONE, 2015):
Among all 310,000 compounds or so, about 14,000 (4.5%) showed an effect of 50% or more. The effect is printed as a negative number. Some of the results follow.

target: human ether-à-go-go-related gene (hERG) potassium channel (human, UniProt Q12809); test: primary screen, population patch clamp on CHO cells stably expressing hERG
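Also: peak tail current of the secondary pulse compared with the same well before compound.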

Sequence of human ether-à-go-go-related gene (hERG) potassium channel (Q12809 whole entry, looked up): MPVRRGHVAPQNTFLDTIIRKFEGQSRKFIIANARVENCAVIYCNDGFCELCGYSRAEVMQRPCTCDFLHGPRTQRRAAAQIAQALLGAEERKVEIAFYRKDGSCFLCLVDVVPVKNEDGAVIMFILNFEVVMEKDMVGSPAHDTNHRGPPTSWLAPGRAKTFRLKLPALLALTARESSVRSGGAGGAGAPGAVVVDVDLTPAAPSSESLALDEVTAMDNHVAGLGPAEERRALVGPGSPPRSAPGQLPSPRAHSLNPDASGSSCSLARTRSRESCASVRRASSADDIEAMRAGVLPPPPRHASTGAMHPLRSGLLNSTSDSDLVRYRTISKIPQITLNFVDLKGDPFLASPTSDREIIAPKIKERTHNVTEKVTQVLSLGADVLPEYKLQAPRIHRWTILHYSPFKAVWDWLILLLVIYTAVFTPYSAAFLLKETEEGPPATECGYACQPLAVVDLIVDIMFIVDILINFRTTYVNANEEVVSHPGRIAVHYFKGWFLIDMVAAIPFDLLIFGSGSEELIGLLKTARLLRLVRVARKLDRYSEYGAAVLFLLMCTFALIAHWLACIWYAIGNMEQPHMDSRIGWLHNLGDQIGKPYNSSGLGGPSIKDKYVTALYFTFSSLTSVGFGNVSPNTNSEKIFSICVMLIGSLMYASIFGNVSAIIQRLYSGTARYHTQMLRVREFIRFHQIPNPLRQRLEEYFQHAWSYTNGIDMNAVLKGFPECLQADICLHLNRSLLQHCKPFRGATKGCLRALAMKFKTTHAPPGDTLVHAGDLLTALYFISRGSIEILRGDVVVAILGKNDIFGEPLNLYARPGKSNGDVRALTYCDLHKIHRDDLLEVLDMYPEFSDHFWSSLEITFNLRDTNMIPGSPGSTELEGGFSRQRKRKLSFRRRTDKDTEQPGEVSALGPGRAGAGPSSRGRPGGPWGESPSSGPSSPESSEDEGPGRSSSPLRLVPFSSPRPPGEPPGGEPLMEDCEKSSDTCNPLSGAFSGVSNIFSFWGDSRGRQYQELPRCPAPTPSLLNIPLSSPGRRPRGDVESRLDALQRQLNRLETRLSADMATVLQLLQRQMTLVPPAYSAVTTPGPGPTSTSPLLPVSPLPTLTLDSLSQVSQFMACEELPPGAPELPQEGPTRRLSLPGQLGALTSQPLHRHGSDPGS

Point of comparison: CC(C)(C)C1CCC2(CC1)SCC(=O)N2c1ccccc1 (stereo not drawn), “hERG current change (%, negative = inhibition) at 10uM” value 13.6%. Against it:
- O=[N+]([O-])c1cccc(-c2n[nH]c(=S)n2Cc2ccccc2)c1 — lower, 4.24%
- COC(=O)c1sccc1NN1C(=O)c2ccccc2C1=O — lower, 7.36%
- COc1ccc(-c2nc(-c3cccnc3)no2)cc1 — higher, 13.8%
- Cc1onc(-c2ccccc2)c1CNC(=O)Nc1ccc(C(F)(F)F)cc1 — higher, 14.9%
- Cc1[nH]c(=O)[nH]c(=O)c1S(=O)(=O)N1CCCC(C(=O)N2CCN(c3cccc(C(F)(F)F)c3)CC2)C1 (stereo not drawn) — higher, 15.6%
- COc1ccccc1C1OC(c2cccc([N+](=O)[O-])c2)=NN1C(C)=O (stereo not drawn) — lower, -62%
- CCOC(=O)N1CCC(N(CCN(C)C)C(=S)Nc2ccc(Oc3ccccc3)cc2)CC1 — lower, -6.02%
- COc1ccc(C2=NOC(CN3C(=O)c4ccccc4S3(=O)=O)C2)cc1 (stereo not drawn) — lower, -27%
- O=C(N/N=C/c1c(Cl)cccc1Cl)C(=O)NC1CC1 — higher, 54.8%
- Cc1c(Cl)c([N+](=O)[O-])nn1CC(=O)NC12CC3CC(CC(C3)C1)C2 — lower, 6.04%
- COc1cccc(CN2CCCC(C(=O)c3ccc4c(c3)OCO4)C2)c1OC (stereo not drawn) — lower, -63.3%
- COc1cc(/C=C2/C(=O)NN(c3cccc(C)c3)C2=O)ccc1OC(=O)c1ccco1 — lower, 1.6%
- CCOC(=O)Cc1ccc2sc(-c3ccccc3)nc2c1 — lower, -5.73%
- O=C(NNc1nc2cc3c(cc2s1)OCCO3)c1ccc(F)cc1 — lower, -1%
- CCN(CC)S(=O)(=O)c1cccc(C(=O)Nc2cccnc2)c1 — lower, -17.7%
- Cc1ccc(NC(=O)CN2C(=O)C(=O)N(C3CCCC3)C2=O)cc1Cl — lower, -11.4%
- CCOc1ccc2oc(C(=O)NC3CC(C)(C)NC(C)(C)C3)c(C)c2c1 — lower, 12.4%
- CCOc1nc(NCCN2CCOCC2)nc(NC(C)C)n1 — lower, -9.84%
- CCC(Cc1ccccc1)n1c(=S)[nH]c2ccccc2c1=O (stereo not drawn) — lower, -6.3%
- COc1cc(OC)cc(C(=O)NCCNC(=O)c2ccccc2)c1 — lower, 10.7%
- NC(=O)CCS(=O)(=O)c1ccc(Cl)cc1 — lower, -18.3%
- Cc1c2c([n+]3n1CCC3)CC(C)(C)CC2=O.[Br-] — higher, 32.1%
- COc1ccc(C(=O)N2CCN(Cc3ccccc3[N+](=O)[O-])CC2)cc1.O=C(O)C(=O)O — lower, -58.9%
- O=C(Nc1ccc(NC(=O)C2CCCN2C(=O)OCc2ccccc2)cc1)c1ccco1 (stereo not drawn) — lower, 11.3%
- O=C(C1CCN(S(=O)(=O)c2cnc[nH]2)CC1)N1CCN(Cc2ccc3c(c2)OCO3)CC1 — lower, 0.674%
- O=C(C1=C(O)C(=O)N(CCc2ccccc2)C1c1ccncc1)c1cc2ccccc2o1 (stereo not drawn) — lower, 6.99%
- CCOC(=O)CN1CC23C=CC(O2)C(C(=O)N2CCN(c4ccc(F)cc4)CC2)C3C1=O (stereo not drawn) — lower, 2.47%
- O=C(Nc1ccc(S(=O)(=O)Nc2nccs2)cc1)C1CC(=O)N(c2ccc(Cl)cc2)C1 (stereo not drawn) — lower, 0.55%
- O=c1c(Cl)c(N/N=C/c2ccc(Br)cc2)cnn1-c1ccccc1 — lower, 5.29%
- COc1cc(C)ccc1S(=O)(=O)NC1CC(C)(C)NC(C)(C)C1 — lower, -8.88%
- O=C(NCc1ccccc1)c1csc2c1CCCCC2 — higher, 15%
- CCn1c(SCC(=O)Nc2cc3oc4ccccc4c3cc2OC)nnc1-c1cccs1 — higher, 17.1%
- CCN(CC)C(=O)c1cc([N+](=O)[O-])cc2c1-c1ccc([N+](=O)[O-])cc1C2=C(C#N)C#N — lower, -22.8%
- CCOc1ccccc1-c1nc(C(N)=O)c2[nH]c(=O)n(-c3ccc(F)cc3)c2n1 — lower, -12.6%
- CC(=O)OCc1c(C(F)(F)F)nn(C)c1Oc1cccc(C(F)(F)F)c1 — lower, 2.3%
- CC1(c2ccc3ccccc3c2)NC(=O)N(CC(=O)N2CCC(C(N)=O)CC2)C1=O (stereo not drawn) — lower, 2.08%
- CC(=O)N(c1cccc(C)c1)C1SC(=O)N(c2ccccc2)C1=O (stereo not drawn) — higher, 15.7%
- CC1(C)Oc2ccccc2OC1(O)c1ccc2ccccc2n1 (stereo not drawn) — lower, 0.764%
- Cc1ccc(OCC(=O)N(C)Cc2ccccc2)c([N+](=O)[O-])n1 — lower, 3.95%
- O=[N+]([O-])c1cc(-c2cnc3ccccc3n2)ccc1Oc1ccc(Cl)cc1 — lower, -0.863%
- O=C(NCCc1ccccc1F)C1CCCN1S(=O)(=O)c1ccccc1 (stereo not drawn) — lower, -33.3%
- O=C(Oc1csc(=S)n1C(=O)c1ccccc1)c1ccccc1 — higher, 14.1%
- Cn1c(=O)n(C)c2cc(/C=C3/NC(=O)N(Cc4ccccc4)C3=O)ccc21 — lower, 4.76%
- Cn1cccc1Cc1nnc(SCC(=O)NCc2ccc(F)cc2)n1-c1ccc(F)cc1 — lower, -30.4%
- O=C(c1ccco1)N1CCN(C(c2ccccc2)c2nnnn2Cc2cccs2)CC1 (stereo not drawn) — lower, -38.9%
- O=C1NC(=O)N(c2ccccc2)C(=O)/C1=C/c1ccc([N+](=O)[O-])s1 — lower, 11.8%
- Cc1cccc(C(=O)N[C@H](C(=O)Nc2ncc(C)s2)C(C)C)c1 — higher, 46.4%
- CN(CC(=O)NCc1ccccc1Cl)CC(=O)Nc1ccccc1Br — lower, -17.8%
- COc1ccc(N(CC(=O)Nc2c(C)n(C)n(-c3ccccc3)c2=O)S(=O)(=O)c2ccccc2)cc1OC — lower, -6.8%
- O=[N+]([O-])c1ccc(/C=N/Nc2nc(N3CCCCC3)nc(N3CCCCC3)n2)o1 — lower, -18.1%
- CCc1cc2c(=O)c(-c3ccc(F)cc3)c(C)oc2cc1OCC(=O)O — higher, 20.1%
- O=C(CNC(=O)c1ccc(Br)cc1)Nc1ccc(Br)cc1C(=O)c1ccccc1 — lower, 8.45%
- CCCCC(=O)Nc1ccc2c(c1)nc(CCN1CCN(c3ccccn3)CC1)n2C — lower, -56.5%
- COc1ccccc1C(=O)C1CCCN(C(=O)c2ccccc2Cl)C1 (stereo not drawn) — lower, 10.4%
- O=c1c2ccccc2[nH]c(=S)n1-c1cccnc1 — lower, 8.44%
- CCc1ccc2[nH]c(=O)c(CN(CCN(CC)CC)C(=S)NCc3ccco3)cc2c1 — lower, -67.9%
- Oc1c(C(Nc2cccc(C(F)(F)F)c2)c2cccnc2)ccc2cccnc12 (stereo not drawn) — lower, 10.8%
- O=P(O)(O)O.c1ccc(CSCCc2ccncc2)cc1 — lower, -5.48%
- Cl.Nc1nc2cc3ccccc3cc2[nH]c1=O — lower, 3.54%
- CCOc1ccc(NC(=O)CS(=O)(=O)c2cn(CC)c3ccccc23)cc1 — lower, -4.64%
- Cc1cc(C)c(OCC(=O)Nc2ccc(S(=O)(=O)N3CCOCC3)cc2)c(C)c1 — lower, -22.8%
- CCc1nnc(NC(=O)c2ccc(S(=O)(=O)N3CCN(Cc4ccccc4)CC3)cc2)s1 — lower, 1.72%
- NC(N)=NS(=O)(=O)c1ccc(N=C2C(=O)Nc3ccccc32)cc1 — lower, -11.6%
- CC(O)CN1CC(O)=C(c2nc3ccccc3s2)C1=N (stereo not drawn) — lower, 3.89%
- COc1cc(CNCCO)ccc1OCCc1ccccc1 — lower, 6.61%
- COc1cccc(CN2CC(C(=O)NCCCc3ccncc3)CCC2=O)c1 (stereo not drawn) — lower, 7.61%
- O=C(CCSc1nnc2ccc3ccccc3n12)Nc1ccc(F)cc1 — lower, 1.96%
- Cc1ccc(C)c(NC(=O)CSc2nnc(-c3ccco3)o2)c1 — lower, 5.02%
- Nc1cccc2c1C(=O)N(CCOc1ccc(F)cc1)C2=O — lower, 3.98%
- Cc1c(Cl)cccc1NC(=S)NCCc1ccccn1 — lower, 9.25%
- COc1ccc(C(=O)N/C(=C\c2cn(C)c3ccccc23)C(=O)N2CCOCC2)cc1OC — lower, 6.13%
- CC(C)N1CCc2c(sc(NC(=O)c3ccc(S(=O)(=O)N4CCOCC4)cc3)c2C(N)=O)C1 — lower, -11.2%
- CC(=O)c1ccc(-c2ccc(C(=O)N(C)c3c(N)n(Cc4ccccc4)c(=O)[nH]c3=O)o2)cc1 — lower, -14.5%
- CC(C)NS(=O)(=O)c1ccc(OCC(=O)N2CCN(Cc3ccccc3)CC2)c(Cl)c1 — lower, -11.5%
- CC1CCN(C(=O)c2ccccc2NC(=O)Nc2ccccc2)CC1 — lower, -4.25%
- CCC(C)(C)n1nnnc1C(c1ccncc1)N1CCC(C)CC1 (stereo not drawn) — lower, -23.1%
- CS(=O)(=O)N(CC(=O)NCc1ccccc1Cl)c1cccc([N+](=O)[O-])c1 — lower, 5.22%
- COc1cc(NC(=O)CCC(=O)c2cccs2)cc(OC)c1 — higher, 20%
- CC(C)(C)SCCNC(=O)c1ccc(CN2CCc3ccccc3C2)cc1 — lower, -35.1%
- CN(C)N1C(=O)CC(N2CCCC2)C1=O.Cl (stereo not drawn) — the same, 13.6%
- CCC1(c2ccccc2)NC(=O)N(CC(=O)Nc2ccccc2C(=O)NC2CC2)C1=O (stereo not drawn) — lower, -7.31%
- O=C(OCCOCCN=C1NS(=O)(=O)c2ccccc21)c1ccccc1Br — lower, -19.4%
- COCCn1cc(C(=O)NCCN(C)C)c2c3ccccc3n(C)c2c1=O — lower, -14%
